# PubChem BioAssay AID1508649 (National Center for Advancing Translational Sciences (NCATS), 2021)
# Among all 43,000 compounds or so, about 830 (1.9%) were called active. The inconclusive results got no clear call from the source; some entries with a clear call stand among them for comparison. The calls were made as follows: active = clear falling dose curves in both reporters; inconclusive = both reporters move, but less clearly or upward; inactive = either reporter flat; the % is the NLuc reporter signal. Potencies of inconclusive entries are left out as doubtful fits.
# Assay: Cell-based coincidence reporter assay to measure PMP22 gene transcription in S16 Pmp22-F2sN cells - Primary screen
# Conditions: S16 Pmp22-F2sN Schwann cells (luciferase reporters placed in the Pmp22 gene), FLuc/NLuc coincidence luminescence, 24 h; measured here: NLuc reporter readout, at 57.5 µM (top of the series)
# In short: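 S16(c9) Schwann cells with FLuc/NLuc coincidence reporter in the Pmp22 3' UTR; compounds pin-transferred, 24 h at 37C. Dual-luciferase read: FLuc first, then NLuc after Stop&Glo, each 10 min at room temperature.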
# Potency is read from the fitted curve at half-maximal effect; tags tell the direction and shape of the fitted curve.
row,Compound,Potency
1,Cc1ccnc(NC(c2cc(C)ccc2O)c2ccc3cccnc3c2O)c1 (centres undefined),"inconclusive [phenotype inactive, partial curve]"
2,Cc1cccc(Cn2c(SCc3ccc(C(=O)NCc4cccs4)cc3)nc3ccncc32)c1,"inconclusive [phenotype inactive, single point]"
3,Cn1cc(-c2cc3n(n2)CCC(=O)N3CC(=O)NCc2ccccc2)c2ccccc21,"inconclusive [phenotype inactive, partial curve, poor fit]"
4,COc1ccc(N(C(=O)c2cc(OC)c(OC)c(OC)c2)S(=O)(=O)c2ccc(C)cc2)cc1,active: 18.9 µM
5,COc1ccc(Cl)cc1NC(=O)c1c(NCc2cccs2)sc2c1CCC(C)C2 (centres undefined),"inconclusive [phenotype inactive, full curve, poor fit]"
6,Cc1ccc(NC(=O)CSc2nc(=O)n(CCN3CCOCC3)c3c2CCC3)cc1Cl,"inconclusive [phenotype inactive, single point]"
7,Cc1ccc(N2CC(NC(=O)Cc3ccc(F)cc3)CC2=O)cc1C (centres undefined),"inconclusive [phenotype inactive, single point]"
8,COC(=O)c1ccccc1NC(=O)Cn1ncc2c(C)n(Cc3ccc(F)cc3)c(C)c2c1=O,"inconclusive [phenotype inactive, single point]"
9,Cc1ccc(OCCSc2nc3ccccc3n2CC(=O)N2CCCCC2)cc1C,"inconclusive [phenotype inactive, single point]"
10,O=C(COc1ccccc1)NCCc1csc(-c2ccc(F)cc2)n1,"inconclusive [phenotype inactive, partial curve]"
11,Cc1ccc(-n2ccnc(NCc3cccs3)c2=O)cc1C,"inconclusive [phenotype inactive, single point]"
12,O=C(COCc1cc(-c2ccc3c(c2)OCO3)on1)N1CCN(c2cccc(C(F)(F)F)c2)CC1,"inconclusive [phenotype inactive, single point]"
13,CCCN1CCCc2cc(CN(CCCN3CCOCC3)C(=O)Nc3ccc(OCC)cc3)ccc21,"inconclusive [phenotype inactive, single point]"
14,Cc1cccc(Cn2nnc3c(=O)[nH]c(C4CCCN(C(=O)c5ccc(C(C)(C)C)cc5)C4)nc32)c1 (centres undefined),inactive
15,Cc1cccc(N2CCN(C(=O)c3c4c(nc5ccccc35)C(=O)N(C3CCCCC3)C4)CC2)c1C,"inconclusive [phenotype inactive, single point]"
16,Cc1nnc(N2CCC(C(=O)NCc3cccc(Cl)c3)CC2)c2nn(-c3ccccc3)c(C)c12,"inconclusive [phenotype inactive, partial curve]"
17,Cc1oc(-c2ccc(Cl)cc2)nc1CN1CCCC(C(=O)NCc2ccc(Cl)cc2)C1 (centres undefined),"inconclusive [phenotype inactive, partial curve, poor fit]"

row,Compound,Potency
1,CN(Cc1ccccc1)C(=O)c1ccc2c(c1)N(Cc1ccc(Cl)cc1)C(=O)c1ccccc1S2=O (centres undefined),"inconclusive [phenotype inactive, single point]"
2,COc1ccc(NS(=O)(=O)c2cc3c4c(c2)CC(=O)N4CCC3)cc1Cl,"inconclusive [phenotype inactive, single point]"
3,O=C(Cn1c(=O)c2sccc2n(CC(=O)Nc2ccc(Cl)cc2Cl)c1=O)NCCc1ccccc1,"inconclusive [phenotype inactive, single point]"
4,COc1ccc(OC)c(CCNC(=O)c2sc3nc4n(c(=O)c3c2C)CCCC4)c1,inactive
5,Cc1ccc(CCNC(=O)CCCn2nc(C)c3c(C)n(-c4ccc(C)cc4)nc3c2=O)cc1,"inconclusive [phenotype inactive, single point]"
6,CCc1ccc(OCC2c3cc(OC)c(OC)cc3CCN2C(=O)Cc2ccc(OC)c(OC)c2)cc1 (centres undefined),"inconclusive [phenotype inactive, single point]"
7,COc1ccc(NC(=O)c2oc3ccc4c(c3c2C)C(=O)CC(C)(C)O4)cc1OC,"inconclusive [phenotype inactive, single point]"
8,Cc1cc(C)cc(NC(=O)NCC2CCN(Cc3cc(C)ccc3C)CC2)c1,"inconclusive [phenotype inactive, partial curve]"
9,COc1ccc(-c2noc(CSc3nnc(-c4ccncc4)n3-c3cccc(C)c3)n2)cc1OC,active: 10 µM
10,O=C(NCCc1ccc(Cl)cc1)c1ccc2c(c1)N(Cc1ccc(F)cc1Cl)C(=O)CS2,"inconclusive [phenotype inactive, single point]"
11,Cc1ccc(NC(=O)c2ccc3c(=O)n4nc(Nc5ccccc5C)sc4nc3c2)cc1C,active: 9.46 µM
12,CCN(CCCNC(=O)c1ccc(Sc2ccc(Cl)cc2)c(NC(C)=O)c1)c1cccc(C)c1,"inconclusive [phenotype inactive, single point]"
13,COc1ccc(NC(=O)c2ccco2)cc1NC(=O)c1ccc(OC(C)C)cc1,"inconclusive [phenotype inactive, single point]"
14,N#C/C(=C\c1ccc(-c2ccccc2C(=O)O)o1)c1nc2ccccc2[nH]1,"inconclusive [phenotype inactive, single point]"
15,O=C(Cn1c(=O)n(Cc2ccco2)c(=O)c2ccc(C(=O)NC3CCCC3)cc21)Nc1ccc(F)cc1,"inconclusive [phenotype inactive, single point]"
16,CCOc1ccc(NC(=O)c2c(NC(=O)c3ccco3)sc3c2CCC(C(C)(C)C)C3)cc1 (centres undefined),"inconclusive [phenotype inactive, single point]"
17,Cc1ccc2nc(/C(C#N)=C/c3cccc(Br)c3)[nH]c2c1,"inconclusive [phenotype inactive, single point]"
